Source: a collection of fitness landscapes (doi:10.1126/science.1257360)
The list shows a part of the results.

B1: PhoQ; a variant is named by its letters at X, in order, P23837 (parent)
chain: MKKLLRLFFPLSLRVRFLLATAAVVLVLSLAYGMVALIGYSVSFDKTTFRLLRGESNLFYTLAKWENNKLHVELPENIDKQSPTMTLIYDENGQLLWAQRDVPWLMKMIQPDWLKSNGFHEIEADVNDTSLLLSGDHSIQQQLQEVREDDDDAEMTHSVAVNVYPATSRMPKLTIVVVDTIPVELKSSYMVWSWFIYVLSANLLLVIPLLWVAAWWSLRPIEALAKEVRELEEHNRELLNPATTRELTSLVRNLNRLLKSERERYDKYRTTLTDLTHSLKTPLXXLQXXLRSLRSEKMSVSDAEPVMLEQISRISQQIGYYLHRASMRGGTLLSRELHPVAPLLDNLTSALNKVYQRKGVNISLDISPEISFVGEQNDFVEVMGNVLDNACKYCLEFVEISARQTDEHLYIVVEDDGPGIPLSKREVIFDRGQRVDTLRPGQGVGLAVAREITEQYEGKIVAGESMLGGARMEVIFGRQHSAPKDE

Variants of: B1
Test: enrichment ratio after two sorts for PhoP signalling (ratio (wild type AVST 3.29)); higher = more functional
Conditions: with PhoP (E. coli)

Variant | enrichment ratio
VEMK | ≤ 0.25
YEGS | ≤ 0.25
ALFN | ≤ 0.25
MCGI | ≤ 0.25
RMWQ | ≤ 0.25
HATW | ≤ 0.25
LWPH | ≤ 0.25
FFLL | ≤ 0.25
YGNY | ≤ 0.25
HYFR | ≤ 0.25
MWTS | ≤ 0.25
RCIR | ≤ 0.25
LDIF | ≤ 0.25
PLMK | ≤ 0.25
RRQE | ≤ 0.25
MHQF | 0.444
HQWL | ≤ 0.25
DRCK | ≤ 0.25
VHIW | ≤ 0.25
LWYC | ≤ 0.25
GYSS | ≤ 0.25
SSEL | 0.485
ANHW | ≤ 0.25
DMKG | ≤ 0.25
FMEM | ≤ 0.25

Variant | enrichment ratio
VVHP | ≤ 0.25
SCCL | 18.7
LAQI | ≤ 0.25
TQHW | ≤ 0.25
YLKA | ≤ 0.25
MFRC | ≤ 0.25
IRDN | ≤ 0.25
YDTM | ≤ 0.25
EIFG | ≤ 0.25
HDRK | ≤ 0.25
RCVS | ≤ 0.25
SVCN | 19.4
MEHC | 3.36
SAMW | 1.19
IFHH | ≤ 0.25
FLFY | ≤ 0.25
DCHV | ≤ 0.25
ESNV | ≤ 0.25
LSIF | ≤ 0.25
LWVK | ≤ 0.25
EACM | ≤ 0.25
NFGW | ≤ 0.25
GQGM | ≤ 0.25
EHWF | ≤ 0.25
RPAY | ≤ 0.25

Variant | enrichment ratio
DEKD | ≤ 0.25
TTFQ | 5.22
MYIR | ≤ 0.25
RVHD | ≤ 0.25
YSSA | ≤ 0.25
QQDH | ≤ 0.25
MTIH | ≤ 0.25
RLYT | ≤ 0.25
SGND | ≤ 0.25
PNPR | ≤ 0.25
AFFN | ≤ 0.25
EQQV | ≤ 0.25
QCNH | ≤ 0.25
DPWL | ≤ 0.25
GCFD | ≤ 0.25
TTIG | ≤ 0.25
MFVL | ≤ 0.25
NIHW | ≤ 0.25
WQYR | ≤ 0.25
DRIK | ≤ 0.25
TIGH | 8.05
HYQP | ≤ 0.25
DCLH | ≤ 0.25
TCYS | 0.305
VIWG | ≤ 0.25

Variant | enrichment ratio
DYCV | ≤ 0.25
ATND | ≤ 0.25
RPHL | ≤ 0.25
GNVT | ≤ 0.25
QERG | ≤ 0.25
IANM | ≤ 0.25
DEWC | ≤ 0.25
LWLK | ≤ 0.25
VFGE | ≤ 0.25
PPIV | ≤ 0.25
HSRA | ≤ 0.25
TFDH | ≤ 0.25
DKFF | ≤ 0.25
SSYS | ≤ 0.25
WWQF | ≤ 0.25
QNQW | ≤ 0.25
NQKS | ≤ 0.25
WVAL | ≤ 0.25
AAFG | ≤ 0.25
GWKV | ≤ 0.25
LHSG | 0.538
LFTQ | ≤ 0.25
TQNQ | 5.59
IDSP | ≤ 0.25
HILW | ≤ 0.25

Variant | enrichment ratio
YARL | ≤ 0.25
HTPD | ≤ 0.25
ANAC | ≤ 0.25
EFFS | ≤ 0.25
IIVG | ≤ 0.25
AGYY | ≤ 0.25
DPSL | ≤ 0.25
TYGS | 0.441
AETA | 5.73
LAKI | ≤ 0.25
ERCK | ≤ 0.25
IIPW | ≤ 0.25
DFNF | ≤ 0.25
FKKP | ≤ 0.25
FYLE | ≤ 0.25
SHTT | ≤ 0.25
SEDP | ≤ 0.25
WSGL | ≤ 0.25
TASR | 0.261
EPLQ | ≤ 0.25
AHTY | ≤ 0.25
IHML | ≤ 0.25
EMER | ≤ 0.25
HTQH | ≤ 0.25
SQDT | ≤ 0.25

Variant | enrichment ratio
DNVI | ≤ 0.25
HEEL | ≤ 0.25
SEGE | ≤ 0.25
QRFE | ≤ 0.25
GQPA | ≤ 0.25
DPTQ | ≤ 0.25
MRCR | ≤ 0.25
DFCH | ≤ 0.25
HTDF | ≤ 0.25
SLHA | ≤ 0.25
THNW | ≤ 0.25
SARS | ≤ 0.25
QQVY | ≤ 0.25
QLTM | ≤ 0.25
VLHT | ≤ 0.25
MNPW | ≤ 0.25
GMRV | ≤ 0.25
IYEL | ≤ 0.25
AGQM | 15.8
YYFV | ≤ 0.25
SGKV | ≤ 0.25
MKWS | ≤ 0.25
IEVP | ≤ 0.25
FEWE | ≤ 0.25
QIYC | ≤ 0.25

Variant | enrichment ratio
WATG | ≤ 0.25
STEI | ≤ 0.25
HSYI | ≤ 0.25
DNFF | ≤ 0.25
QKIC | ≤ 0.25
FGAM | ≤ 0.25
GKPV | ≤ 0.25
RHLN | ≤ 0.25
WCFC | ≤ 0.25
QWYS | ≤ 0.25
KQKG | ≤ 0.25
KINM | ≤ 0.25
MIII | ≤ 0.25
QVSS | 2.17
PHLE | ≤ 0.25
TIGD | 11.6
WFNN | ≤ 0.25
VADP | ≤ 0.25
VWAG | ≤ 0.25
DDNR | ≤ 0.25
NTIV | ≤ 0.25
WGQY | ≤ 0.25
TAYM | 1.39
VEWC | 3.2
QKNL | ≤ 0.25

Variant | enrichment ratio
KEPS | ≤ 0.25
IATC | ≤ 0.25
NNKE | ≤ 0.25
QGFE | ≤ 0.25
HVAS | ≤ 0.25
IRQC | ≤ 0.25
HHKA | ≤ 0.25
ERHK | ≤ 0.25
TIYD | 1.06
FDKS | ≤ 0.25
SFIS | ≤ 0.25
ILCV | ≤ 0.25
EIWK | ≤ 0.25
YFML | ≤ 0.25
ILFN | ≤ 0.25
GDGT | ≤ 0.25
TDRD | ≤ 0.25
IPYL | ≤ 0.25
SDDG | ≤ 0.25
VYYL | ≤ 0.25
